# Test results reported in the supplement of paper PMC8728848.
# The other results are listed elsewhere or left out.
# B1: PitA (Streptococcus oralis), G3F8D8 (protein)
# chain: MNIRFDFKKVQIIARRLVTLLAILFLCAPISLLNADSTTEPQTTLHKTITPISGQDDKYELSLDITSKLGTETQTDPLDVVLVADLSGSMQNQDVQSFDGRTISRIDALKNTLRGTNGRKGLIDTILSNSNNRLSMVGFGGKIDNKKVDQYWDGNKWRLFRPYWPYERMTKYYDGVSPWDDANTILGWSNNARAAKTAVYNMSIAGGNSIGTESGIGTGTNIGAGLTLANQLMGSARSNAKKVVILLSDGFANMVYDANGYTIYNYNNEDPNIETAPQWFWDRLNNNLNSLSYSLAPTLDGFYSIKFRYSNNVDSITSLQYYMRQHNASIPNEIFSANDEDQLRDSFKDITDKILPLGIHHVSIKDVLSKYVQLLPNGSSEFRVVKEKDGSSEILIENQVTFDTKTTSEGLVEVTAKFSPNYSLEDGARYVLKFTVTSSQEALDAIAGDKKLEAGDAEGSDVNKLYSNKGASVTYSYGIGNSQTKTKEYSDNPTFKPSDPLTVPVEVEWQGVTGARTVITADQPSNVELKLVQKNKNGGSDNQDYRKTNVNVSKNVSNETRNFEKVAKGYQYDLIAPDVPAFTKEIKNVGTESKPSFKVIYKQLPSLTIKKVLEAENNLNKEFRIKVKLTSPDSKPLNGTFGEITVVNGEAEIRVEKRKRWEGILSYLPRGTHYKVEEEAASTNGYHVTYENQEGDLNKDETSIVTNHKLPSLSVTKKVTGVFANLLKSFKITINIRDAQNSPLNGTYTATVNNKRTPLQFTNGRASIDLNKDQTIKIYGLPLDSHYTVEEESNSSRGYQVSYENQEGKLDGDKSATVTNNKNSVPETGVDFLSSTLMLGIILPLGGIFFTILLGYLVVHRRK
# Columns and labels:
# Assay in all cases: glycan array binding signal (z-score within array); higher = stronger binding
# Settings in all cases: glycan notation: IUPAC condensed, linker removed
# Fuc(a1-2)Gal = biological target: Fuc(a1-2)Gal
# Outline: (§1)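 Glycan array binding is given as a within-array Z-score, which can be read as non-binding when negative. The arrays, 3228 of them, came from the Consortium for Functional Glycomics database and were retained only where the protein sequence was available. Z-scores were averaged across arrays of the same protein sequence at different concentrations or buffers and across linkers.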
# Fuc(a1-2)Gal(b1-3)GalNAc = biological target: Fuc(a1-2)Gal(b1-3)GalNAc
# Outline: as §1
# [1] = biological target: Fuc(a1-2)Gal(b1-3)GalNAc(a1-3)[Fuc(a1-2)]Gal(b1-4)Glc
# Outline: as §1
# [2] = biological target: Fuc(a1-2)Gal(b1-3)GalNAc(a1-3)[Fuc(a1-2)]Gal(b1-4)GlcNAc
# Outline: as §1
# [3] = biological target: Fuc(a1-2)Gal(b1-3)GalNAc(b1-3)Gal
# Outline: as §1
# [4] = biological target: Fuc(a1-2)Gal(b1-3)GalNAc(b1-3)Gal(a1-4)Gal(b1-4)Glc
# Outline: as §1
# [5] = biological target: Fuc(a1-2)Gal(b1-3)GalNAc(b1-4)[Neu5Ac(a2-3)]Gal(b1-4)Glc
# Outline: as §1
# Fuc(a1-2)Gal(b1-3)GlcNAc = biological target: Fuc(a1-2)Gal(b1-3)GlcNAc
# Outline: as §1
# [6] = biological target: Fuc(a1-2)Gal(b1-3)GlcNAc(b1-2)Man(a1-3)[Fuc(a1-2)Gal(b1-3)GlcNAc(b1-2)Man(a1-6)]Man(b1-4)GlcNAc(b1-4)GlcNAc
# Outline: as §1
# [7] = biological target: Fuc(a1-2)Gal(b1-3)GlcNAc(b1-2)Man(a1-3)[Fuc(a1-2)Gal(b1-3)GlcNAc(b1-2)Man(a1-6)]Man(b1-4)GlcNAc(b1-4)[Fuc(a1-6)]GlcNAc
# Outline: as §1
# [8] = biological target: Fuc(a1-2)Gal(b1-3)GlcNAc(b1-3)Gal(b1-4)Glc
# Outline: as §1
# [9] = biological target: Fuc(a1-2)Gal(b1-3)GlcNAc(b1-3)GalNAc
# Outline: as §1
# [10] = biological target: Fuc(a1-2)Gal(b1-3)GlcNAc(b1-3)[Fuc(a1-2)Gal(b1-3)GlcNAc(b1-6)]GalNAc
# Outline: as §1
# [11] = biological target: Fuc(a1-2)Gal(b1-3)GlcNAc(b1-3)[Fuc(a1-3)[Gal(b1-4)]GlcNAc(b1-6)]Gal(b1-4)Glc
# Outline: as §1
# [12] = biological target: Fuc(a1-2)Gal(b1-3)GlcNAc(b1-3)[Gal(b1-4)GlcNAc(b1-6)]Gal(b1-4)Glc
# Outline: as §1
# [13] = biological target: Fuc(a1-2)Gal(b1-3)GlcNAc(b1-3)[Neu5Ac(a2-6)Gal(b1-4)GlcNAc(b1-6)]Gal(b1-4)Glc
# Outline: as §1
# [14] = biological target: Fuc(a1-2)Gal(b1-3)GlcNAc6S
# Outline: as §1
# [15] = biological target: Fuc(a1-2)Gal(b1-3)[Fuc(a1-4)]GlcNAc
# Outline: as §1
# [16] = biological target: Fuc(a1-2)Gal(b1-3)[Fuc(a1-4)]GlcNAc(b1-2)Man(a1-3)[Fuc(a1-2)Gal(b1-3)[Fuc(a1-4)]GlcNAc(b1-2)Man(a1-6)]Man(b1-4)GlcNAc(b1-4)GlcNAc
# Outline: as §1
# [17] = biological target: Fuc(a1-2)Gal(b1-3)[Fuc(a1-4)]GlcNAc(b1-2)Man(a1-6)[Fuc(a1-2)Gal(b1-3)[Fuc(a1-4)]GlcNAc(b1-2)Man(a1-3)]Man(b1-4)GlcNAc(b1-4)[Fuc(a1-6)]GlcNAc
# Outline: as §1
# [18] = biological target: Fuc(a1-2)Gal(b1-3)[Fuc(a1-4)]GlcNAc(b1-3)[Fuc(a1-3)[Gal(b1-4)]GlcNAc(b1-6)]Gal(b1-4)Glc
# Outline: as §1
# [19] = biological target: Fuc(a1-2)Gal(b1-3)[Fuc(a1-4)]GlcNAc(b1-3)[Gal(b1-4)GlcNAc(b1-6)]Gal(b1-4)Glc
# Outline: as §1
binder,measurement,setting,value
B1,glycan array binding signal (z-score),Fuc(a1-2)Gal,-0.413
same,glycan array binding signal (z-score),Fuc(a1-2)Gal(b1-3)GalNAc,-0.353
same,glycan array binding signal (z-score),[1],0.693
same,glycan array binding signal (z-score),[2],-0.581
same,glycan array binding signal (z-score),[3],10.3
same,glycan array binding signal (z-score),[4],0.526
same,glycan array binding signal (z-score),[5],-0.333
same,glycan array binding signal (z-score),Fuc(a1-2)Gal(b1-3)GlcNAc,-0.638
same,glycan array binding signal (z-score),[6],0.06
same,glycan array binding signal (z-score),[7],1.39
same,glycan array binding signal (z-score),[8],-0.345
same,glycan array binding signal (z-score),[9],-0.459
same,glycan array binding signal (z-score),[10],0.672
same,glycan array binding signal (z-score),[11],-0.254
same,glycan array binding signal (z-score),[12],-0.458
same,glycan array binding signal (z-score),[13],-0.587
same,glycan array binding signal (z-score),[14],-0.05
same,glycan array binding signal (z-score),[15],-0.238
same,glycan array binding signal (z-score),[16],-0.211
same,glycan array binding signal (z-score),[17],2.26
same,glycan array binding signal (z-score),[18],-0.688
same,glycan array binding signal (z-score),[19],-0.491
